Measurements as given in PubChem BioAssay AID1508642 (National Center for Advancing Translational Sciences (NCATS), 2021).
The whole screen tested about 43,000 compounds, of which about 200 (0.47%) were called active. Another 12% or so got no clear call; they are omitted. Calls follow the shape of the dose curve; as a rule, active = well fitted cell-killing curve with a large enough effect; inconclusive = small, poorly fitted or top-dose-only effect, or effect the other way; inactive = flat fitted curve, though single readings scatter. The list shows a part of the results.
% is scaled to controls: 0 for no effect and ±100 for the full control effect.

Assay: Cell viability qHTS assay in S16 Pmp22-F2sN cells; also: nearly all actives have a fitted effect of over 65% in size
Conditions: S16 Pmp22-F2sN Schwann cells (luciferase reporters placed in the Pmp22 gene) viability, CellTiter-Glo, 24 h; series mostly up to 57.5 µM; activity change, negative = cytotoxicity: at the top concentration
From the text: Assay Provider: Jim Inglese Ph.D. National Center for Advancing Translational Science, National Institutes of Health, Rockville, MD CMT is a heterogeneous group of neurological disorders that affect approximately 1 in 2,500 people. In particular, the most common form of CMT, CMT1A is genetically linked to the duplication of the PMP22 gene which leads to Schwann cell overexpression, thus manifesting itself as a typical case of dose-sensitive diseases. To identify small molecule compounds that can mediate the expression of PMP22 we developed a phenotypic assay screening strategy by utilizing genome editing techniques to construct Schwann cell lines containing novel reporter technology to monitor the transcriptional or translational regulation of PMP22. For high sensitivity we use a bioluminescent reporter system embedded in the 3' UTR of the PMP22 gene (S16(c9) Pmp22-F2sN) to identify compounds that inhibit gene expression. […] We can further discriminate the effect of all transcriptionally active molecules on PMP22 translation or stability with an assay that incorporates a short NLuc peptide (HiBiT) at the C-terminus of expressed PMP22 (S16(f8) PMP22-HiBiT) allowing alpha complementation and luminescence detection of membrane-associated PMP22 protein. These assays were screened against the NCATS Sytravon Library Collection. Miniaturization of these assays to 1536-well plate format for quantitative high throughput screening (qHTS) yielded rich data sets immediately from the qHTS assay (S16(c9) Pmp22-F2sN), when compared with data from a cell viability assay (Cell TiterGlo) to identify compounds that decreased the output signals through cellular toxicity to streamline the selection process of actives for subsequent characterization using the HiBiT assay (S16(f8) PMP22-HiBiT).
Cell viability assay in S16 Pmp22-F2sN cells PROTOCOL TABLE (format as described by Inglese J, Shamu CE and Guy RK. 2007) SEQUENCE No. (e.g., 1, 2, 3, etc.); […] (e.g., Cells, Incubation, Reagent, etc.); VALUE and DESCRIPTION. 1. Cells. Add 500-1,000 cells in 4 uL in growth media (DMEM High Glucose, No Phenol Red media + 10% heat-inactivated FBS + 1% Pen/Strep supplemented media) per well into Greiner 1536-well white/solid bottom high base, TC-treated plates. 2. Compounds. Library compounds and controls added at 23nL per well, transferred by Pin Tool. 3. Incubation. Incubate plates at 37C, 5% CO2, 95% RH for 24 h. 4. Reagent. Add 3uL CellTiter-Glo per well of Greiner 1536-well plates. 5. Incubation. Incubate plates at room temperature for 15 min., protect from light. 6. Detector. FLuc luminescence measured using CCD-based camera (Viewlux). NOTES (numbers refer to Sequence numbers above; values are from representative experiments) 6. Luminescence Read: Clear filter; Exposure = 1 sec, Gain = High, Speed = Slow, Binning = 2X REFERENCES: 1. Inglese J, Shamu CE and Guy RK, Reporting data from high throughput screening of small molecule libraries, Nature Chemical Biology, 2007, 3(8): 438-441. doi.org/10.1038/nchembio0807-438 2. Yasgar A, Shinn P, Jadhav A, Auld DS, Michael S, Zheng W, Austin CP, Inglese J and Simeonov A, Compound Management for Quantitative High-Throughput Screening. J. Assoc. Lab. Auto., 2008, 13: 79-89. doi: 10.1016/j.jala.2007.12.004
For `Cc1cc(Oc2c(C(F)(F)F)oc3c(CN4CCC(C)CC4)c(O)ccc3c2=O)cc(C)c1Cl`, the “activity change, negative = cytotoxicity” value was inactive: 23.5%. For `Cc1ccc(C)c(CNC(=O)c2ccc3c(c2)nc2n3CCCCC2)c1`, the “activity change, negative = cytotoxicity” value was inactive: 0.605%. With `COc1ccc(S(=O)(=O)NCCCO)cc1-c1nnc2c3ccccc3c(C)nn12` the “activity change, negative = cytotoxicity” value was inactive: -6.95%. With `CCOc1ccc(NC(=O)Cn2cc(C(=O)c3ccc(CC)cc3)c(=O)c3cc(OC)c(OC)cc32)cc1` the “activity change, negative = cytotoxicity” value was inactive: 13%. For `COc1ccc(NS(=O)(=O)c2ccc3c(c2)CCN3C(=O)CCC(=O)O)cc1Cl`, the “activity change, negative = cytotoxicity” value was inactive: -4.46%. For `COc1ccc2cc3cc(C(=O)N4CCN(c5cccc(Cl)c5)CC4)sc3nc2c1`, the “activity change, negative = cytotoxicity” value was inactive: 0.609%. With `COc1ccc(-c2c3c(=O)n(C)c(=O)n(C)c3c3c(-c4cccc(C)c4)nc4ccccc4n23)cc1` the “activity change, negative = cytotoxicity” value was inactive: -23.7%. For `Cc1cc(NC(=O)CCS(=O)(=O)c2cc(Br)cc3c2N(C(=O)C2CC2)CC3)ccc1Br`, the “activity change, negative = cytotoxicity” value was inactive: -8.88%. With `CCc1ccc(-n2c(=O)c3sc4ccccc4c3n(CC(=O)NC3CCCCC3)c2=O)cc1` the “activity change, negative = cytotoxicity” value was inactive: -11%. With `Cc1ccc(NC(=O)Cn2nc(-c3ccncc3)ccc2=O)cc1Cl` the “activity change, negative = cytotoxicity” value was inactive: 0.49%. For `CCOC(=O)c1ccc2c(c1)N(C(CC)C(=O)Nc1ccccc1OC)C(=O)c1ccccc1S2` (stereo unspecified), the “activity change, negative = cytotoxicity” value was inactive: 5.81%. With `CC(C)CCNC(=O)CSc1nc2ccccc2nc1Cc1ccccc1` the “activity change, negative = cytotoxicity” value was inactive: 18.3%. With `CCc1ccc(NC(=O)C(C)n2nnc3sc(-c4ccccc4)cc3c2=O)cc1` (stereo unspecified) the “activity change, negative = cytotoxicity” value was inactive: -0.903%. In the case of `CCOC(=O)c1cccc(NC(=O)C2CCCN(S(=O)(=O)c3ccc4c(c3)oc(=O)n4C)C2)c1` (stereo unspecified), the “activity change, negative = cytotoxicity” value is reported as inactive: -15.3%. For `COc1ccc(NC(=O)/C(C#N)=C/c2cc(C)n(-c3ccc(F)cc3)c2C)cc1`, the “activity change, negative = cytotoxicity” value was inactive: 4.31%. For `C=CCC(CC=C)(CNC(=O)C(=O)Nc1cc(C)ccc1OC)c1ccc(OC)c(OC)c1`, the “activity change, negative = cytotoxicity” value was inactive: -13%. In the case of `CCOc1ccc(C2=NC(c3ccc(OC)cc3)=Nc3ccc(Cl)cc3N2)cc1`, the “activity change, negative = cytotoxicity” value is reported as inactive: -8.6%. With `COc1ccccc1CNC(=O)CN1C(=O)COc2ccc(S(=O)(=O)N3CCC(C)CC3)cc21` the “activity change, negative = cytotoxicity” value was inactive: 3.88%. For `O=C(Cn1cc(S(=O)(=O)N2CCCC2)c(S(=O)(=O)N2CCCC2)c1)Nc1cccc(F)c1`, the “activity change, negative = cytotoxicity” value was inactive: 5.61%. With `Cc1ccc(CN(C(=O)COc2ccc(Cl)c(C)c2)C2CCS(=O)(=O)C2)o1` (stereo unspecified) the “activity change, negative = cytotoxicity” value was inactive: -3.64%. For `Cc1nc2nc(SCC(=O)O)nn2c(C)c1Cc1c(F)cccc1Cl`, the “activity change, negative = cytotoxicity” value was inactive: 8.22%. With `Cc1csc2nc(COC(=O)c3ccccc3NC(=O)COc3ccccc3F)cc(=O)n12` the “activity change, negative = cytotoxicity” value was inactive: -10.7%. With `CC(C)C(=O)N(Cc1ccccc1)S(=O)(=O)c1ccc2c(c1)oc(=O)n2C` the “activity change, negative = cytotoxicity” value was inactive: 0.254%. In the case of `Cc1nc2nncn2c(NCc2ccc(Cl)cc2)c1C`, the “activity change, negative = cytotoxicity” value is reported as inactive: -20.7%. With `Cc1ccc(-n2c(=O)c3c4c(sc3n(Cc3cccc(Cl)c3)c2=O)CCC4)cc1C` the “activity change, negative = cytotoxicity” value was inactive: 0.921%. In the case of `O=c1c2cn[nH]c2nc(SCc2cccc(Br)c2)n1-c1ccc(Cl)cc1`, the “activity change, negative = cytotoxicity” value is reported as inactive: -18.7%. With `COc1ccccc1CNC(=O)NCc1noc2ccc(C)cc12` the “activity change, negative = cytotoxicity” value was inactive: -2.92%. For `Cc1ccn2c(Nc3ccc4c(c3)OCO4)c(-c3ccc(N(C)C)cc3)nc2c1`, the “activity change, negative = cytotoxicity” value was inactive: -12.4%. In the case of `CCOc1ccc(NC(=O)CC2C(=O)N(c3ccccc3)C(=O)N2C2CCCCC2)cc1` (stereo unspecified), the “activity change, negative = cytotoxicity” value is reported as inactive: -25.9%. In the case of `CCOC(=O)c1c(-c2ccccc2)csc1NC(=O)c1cc(-c2ccc(Br)cc2)on1`, the “activity change, negative = cytotoxicity” value is reported as inactive: 2.87%. For `Cc1nc2ccc(S(=O)(=O)CCC(=O)Nc3ccc(C)c(C)c3)cc2s1`, the “activity change, negative = cytotoxicity” value was inactive: -13%. With `O=C(c1ccco1)n1nc(-c2ccccc2)nc1NCc1ccc(F)cc1` the “activity change, negative = cytotoxicity” value was inactive: 15%. With `COc1cccc2sc(N(Cc3cccnc3)C(=O)Cc3ccccc3)nc12` the “activity change, negative = cytotoxicity” value was inactive: -5.34%. With `CCN1CCN(c2cc3c(cc2F)c(=O)c(S(=O)(=O)c2ccc(OC)cc2)cn3CC)CC1` the “activity change, negative = cytotoxicity” value was inactive: -3.42%. In the case of `Cn1c(C(=O)NCc2ccccc2F)cc2oc3ccccc3c21`, the “activity change, negative = cytotoxicity” value is reported as inactive: -20.3%. In the case of `COc1cc(C(=O)Nc2ccc3[nH]c(=O)sc3c2)cc(OC)c1OC`, the “activity change, negative = cytotoxicity” value is reported as inactive: 1.51%. In the case of `CC1=C(C(=O)Nc2cccnc2)C(c2cccc(F)c2)n2nc(SCc3ccccc3)nc2N1` (stereo unspecified), the “activity change, negative = cytotoxicity” value is reported as inactive: 10.1%. In the case of `CC(C)C(=O)N1c2ncnn2C2(CCCCC2)[C@@H]2CCCC[C@@H]21`, the “activity change, negative = cytotoxicity” value is reported as inactive: -20.1%. In the case of `COc1ccc(C2CC(=O)N(Cc3ccc(F)cc3)c3ccccc3S2)cc1` (stereo unspecified), the “activity change, negative = cytotoxicity” value is reported as inactive: -19.3%. In the case of `Cc1ccc(S(=O)(=O)N2CCN(Cc3noc(CCC(=O)N4CCCCC4)n3)CC2)c(C)c1`, the “activity change, negative = cytotoxicity” value is reported as inactive: -22.4%. In the case of `CC(C)Cn1c(=O)c2sccc2n2c(CCCC(=O)NCCc3ccccc3)nnc12`, the “activity change, negative = cytotoxicity” value is reported as inactive: 15%. With `COc1cccc(C(=O)NCC(=O)OCc2cc(=O)n3c(C)csc3n2)c1` the “activity change, negative = cytotoxicity” value was inactive: -2.47%. With `CCN1CCN(c2oc(-c3ccc(COc4ccc(C)cc4)o3)nc2C#N)CC1` the “activity change, negative = cytotoxicity” value was inactive: 5.51%. With `CCCCNc1ncnc2c1nnn2C` the “activity change, negative = cytotoxicity” value was inactive: -22.6%. In the case of `COc1ccc2oc(-c3cccc(NC(=O)c4ccc(C#N)cc4F)c3)nc2c1`, the “activity change, negative = cytotoxicity” value is reported as inactive: 26.6%. For `CCCCNC(=O)c1ccc2c(c1)NC(=O)C(CS(=O)(=O)Cc1cccc(C)c1)N2` (stereo unspecified), the “activity change, negative = cytotoxicity” value was inactive: 6.45%. For `COc1cc(C2C(C(=O)OCC(C)C)=C(C)N=C3SCCC(=O)N32)ccc1OCc1ccccc1` (stereo unspecified), the “activity change, negative = cytotoxicity” value was inactive: -3.86%. In the case of `Cc1cccc(NC(=O)Cn2nnc(C(=O)Nc3ccc(F)c(Cl)c3)c2N)c1`, the “activity change, negative = cytotoxicity” value is reported as inactive: 10.1%. For `COc1cccc(NC(=O)CSc2nc(=O)n(Cc3ccco3)c3c2CCC3)c1`, the “activity change, negative = cytotoxicity” value was inactive: 9.94%. With `Cc1ccc(S(=O)(=O)c2cn(CC(=O)Nc3ccc4c(c3)OCO4)c3ccccc3c2=O)cc1` the “activity change, negative = cytotoxicity” value was inactive: -2.12%. In the case of `Cc1sc2ncn(CC(=O)N3CCN(c4ccc(F)cc4)CC3)c(=O)c2c1S(=O)(=O)N1CCCCC1`, the “activity change, negative = cytotoxicity” value is reported as inactive: 6.47%. For `Cc1ccc(Nc2nc3c(S(=O)(=O)c4ccccc4)nnn3c3ccsc23)c(C)c1`, the “activity change, negative = cytotoxicity” value was inactive: -0.161%. For `Cc1cccc2sc(N(CCCN(C)C)C(=O)c3ccc(Cl)s3)nc12`, the “activity change, negative = cytotoxicity” value was inactive: -3.65%. For `CC1=C(C(=O)Nc2ccc(C)cc2C)C(C(C)C)n2nc(SCc3ccccc3Cl)nc2N1` (stereo unspecified), the “activity change, negative = cytotoxicity” value was inactive: 12.9%. In the case of `Cc1ccc(Cn2cc(C(=O)c3ccc(F)cc3)c(=O)c3cc4c(cc32)OCCO4)cc1`, the “activity change, negative = cytotoxicity” value is reported as inactive: 5.08%. For `CCc1ccccc1NC(=O)CSCc1cnn(-c2ccccc2)c1-n1cccc1`, the “activity change, negative = cytotoxicity” value was inactive: 0.101%. With `Cc1ccc2ncc3c(-c4ccc(F)cc4)nn(-c4cccc(F)c4)c3c2c1` the “activity change, negative = cytotoxicity” value was inactive: 6.18%. In the case of `Cc1ccc2c(c1)c1c(c(=O)n(-c3ccccc3C)c(=O)n1CC(=O)N1CCCC1)n2C`, the “activity change, negative = cytotoxicity” value is reported as inactive: 14.1%. In the case of `CCOc1ccccc1CNCCNC(=O)c1nonc1N`, the “activity change, negative = cytotoxicity” value is reported as inactive: -3.84%. In the case of `O=C(NCCc1ccccc1)C1(c2cccs2)CCOCC1`, the “activity change, negative = cytotoxicity” value is reported as inactive: 3.18%. In the case of `CCN(CC)CCNC(=O)c1nn(-c2ccc(OC)c(Cl)c2)c(=O)c2c1c1ccccc1n2C`, the “activity change, negative = cytotoxicity” value is reported as inactive: 16.1%.
